PubChem BioAssay AID686979 (National Center for Advancing Translational Sciences (NCATS), 2013)
The whole screen tested about 420,000 compounds, of which about 50,000 (12%) were called active. Inconclusive means that the source gave no clear call. Such entries were picked first, then a sample of the others. Calls follow the shape of the dose curve; as a rule, active = well fitted inhibition curve with a large enough effect; inconclusive = small, poorly fitted or top-dose-only effect; inactive = flat fitted curve, though single readings scatter. No potency is given beside an inconclusive call; the fits are too rough.

Assay: qHTS for Inhibitors of human tyrosyl-DNA phosphodiesterase 1 (TDP1): qHTS in cells in presence of CPT; also: nearly all actives have a fitted effect of over 55% in size
Settings: chicken DT40 Tdp1-/-;hTDP1 cells + 20 nM CPT, ATP luminescence, 48 h; activity change, negative = growth inhibition: at 46.2 µM (top of the series) unless noted
Procedure, shortened: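 Chicken DT40 Tdp1-/- cells stably complemented with human TDP1 were seeded at 400 cells/well in medium containing 20 nM camptothecin, exposed to pin-transferred compounds, and grown at 37 °C for at least 48 hr. Viability was read as ATP luminescence.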
% is scaled to controls: 0 for no effect and ±100 for the full control effect; potency is read from the fitted curve at half-maximal effect; tags tell the direction and shape of the fitted curve.

**Q.** With `Cc1ccc(CSCc2nc3ccccc3[nH]2)cc1` as the compound, how does the Potency read?
**A.** active: 29.1 µM

**Q.** For `Cc1csc(NC(=O)CSc2nnc3c4ccccc4nc(C(C)(C)C)n23)n1`, which Potency is on record?
**A.** active: 4.61 µM

**Q.** With `O=C(NC(=S)N1CCCCC1c1cccnc1)c1ccccc1` (stereo unspecified) as the compound, how does the “activity change, negative = growth inhibition” value read?
**A.** inactive: -6.28%

**Q.** With `COc1ccc(CCC2CCNCC2)cc1` as the compound, how does the Potency read?
**A.** inconclusive [inhibitor, single point]

**Q.** Which “activity change, negative = growth inhibition” value does the source give for `O=C(C1CC(=O)N(c2ccc3c(c2)OCCO3)C1)N1CCN(c2ccccc2)CC1` (stereo unspecified) here?
**A.** inactive: -27%

**Q.** With `CSc1ccccc1OCc1cc(C(=O)NCc2csc(C(C)C)n2)no1` as the compound, how does the Potency read?
**A.** inconclusive [inhibitor, single point]

**Q.** Which Potency does the source give for `CCCNC(=O)c1cc2nc(-c3ccc(Br)cc3)cc(C(F)(F)F)n2n1` here?
**A.** inconclusive [inhibitor, full curve, poor fit]

**Q.** With `CCOc1ccccc1OCCCC(=O)Nc1sccc1C(N)=O` as the compound, how does the Potency read?
**A.** inconclusive [inhibitor, single point]

**Q.** For `CCCCCCCCCC(=O)N/N=C(\C)c1cccnc1`, which Potency is on record?
**A.** inconclusive [inhibitor, partial curve]

**Q.** For `COc1ccc(-c2ccc(CN3C(CC(C)C)C(=O)N(Cc4cn(CC5CCCCC5)nn4)CCS3(=O)=O)cc2)cc1OC` (stereo unspecified), which Potency is on record?
**A.** active: 23.1 µM

**Q.** With `Fc1ccc(Nc2ccnc(Nc3ccc(F)cc3)n2)cc1` as the compound, how does the Potency read?
**A.** active: 16.4 µM

**Q.** With `COCc1ccc(C(=O)NCC2(N3CCCCC3)CCCCC2)cc1` as the compound, how does the Potency read?
**A.** inconclusive [inhibitor, single point]

**Q.** With `CCc1nn(C(C)C(=O)NCCN2CCN(c3cccc(C)c3C)CC2)c(=O)c2cc3occc3n12` (stereo unspecified) as the compound, how does the Potency read?
**A.** inconclusive [inhibitor, single point]

**Q.** Which Potency does the source give for `O=C1c2cccc3cccc(c23)C(=O)N1CCCN(C(=O)c1cccs1)c1cccc(F)c1` here?
**A.** inconclusive [inhibitor, single point]

**Q.** Which “activity change, negative = growth inhibition” value does the source give for `O=C(COc1ccc(F)cc1)Nc1nc2c(s1)CCCC2` here?
**A.** inactive: -80.1%

**Q.** With `O=c1[nH]c(CN2CCN(Cc3ccccc3)CC2)nc2scc(-c3ccccc3)c12` as the compound, how does the Potency read?
**A.** inconclusive [inhibitor, single point]

**Q.** Which Potency does the source give for `O=C(N/N=C/C(Cl)=C/c1ccccc1)c1ccco1` here?
**A.** inconclusive [inhibitor, single point]

**Q.** Which Potency does the source give for `COc1cccc(/C=N/c2sc(Cc3ccccc3)c(C)c2C(N)=O)c1O` here?
**A.** inconclusive [inhibitor, partial curve]

**Q.** Which “activity change, negative = growth inhibition” value does the source give for `CCN(CC)S(=O)(=O)c1cccc(NC(=O)C2CC(=O)N(c3ccc4c(c3)OCCO4)C2)c1` (stereo unspecified) here?
**A.** inactive: 8.88%

**Q.** For `O=C(COC(=O)/C=C/c1ccc(Br)o1)Nc1cccc(S(=O)(=O)N2CCOCC2)c1`, which “activity change, negative = growth inhibition” value is on record?
**A.** inactive: 2.67%

**Q.** Which Potency does the source give for `O=C(CC12CC3CC(CC(C3)C1)C2)NC(=S)Nc1ccc(CN2CCOCC2)cc1` here?
**A.** inconclusive [inhibitor, single point]

**Q.** Which Potency does the source give for `O=C(NC(=S)Nc1nc2ccccc2s1)c1cccs1` here?
**A.** active: 16.4 µM

**Q.** With `COc1ccc(Br)cc1CNC(=O)c1cc2ccccn2n1` as the compound, how does the Potency read?
**A.** active: 16.4 µM

**Q.** With `CC(=O)N1c2ccc(S(=O)(=O)NCCc3ccccc3)cc2CC1C` (stereo unspecified) as the compound, how does the Potency read?
**A.** inconclusive [inhibitor, single point]

**Q.** Which Potency does the source give for `O=C(Nc1cccnc1)c1ccccc1-c1nc(-c2ccccc2F)no1` here?
**A.** inconclusive [inhibitor, partial curve]

**Q.** Which “activity change, negative = growth inhibition” value does the source give for `COc1ccc(C(=O)Oc2ccc(N(C)S(=O)(=O)c3ccccc3)cc2)cc1[N+](=O)[O-]` here?
**A.** inactive: -18.4%

**Q.** With `CCOc1ccc(OCc2ccc(C(=O)NCC3CCCO3)o2)cc1` (stereo unspecified) as the compound, how does the activity change, negative = growth inhibition read?
**A.** inconclusive: -30.5% [inhibitor]

**Q.** Which Potency does the source give for `COc1ccc(C2CC(=O)N(C)c3ccccc3S2)cc1` (stereo unspecified) here?
**A.** inconclusive [inhibitor, partial curve]

**Q.** With `S=C(NCC1CCCO1)Nc1ccc(Cl)cc1Cl` (stereo unspecified) as the compound, how does the “activity change, negative = growth inhibition” value read?
**A.** inactive: -3.47%

**Q.** For `COc1ccccc1CNC(=O)C(=O)NCC1CCCN1S(=O)(=O)c1cc(C)ccc1C` (stereo unspecified), which Potency is on record?
**A.** inconclusive [inhibitor, single point]

**Q.** With `CC(=O)NC(c1ccc(Cl)cc1)c1ccc2cccnc2c1O` (stereo unspecified) as the compound, how does the Potency read?
**A.** active: 4.11 µM

**Q.** For `Cc1cccc(NCCNc2cccc(C)c2)c1`, which “activity change, negative = growth inhibition” value is on record?
**A.** inactive: 1.54%

**Q.** Which Potency does the source give for `CC1=C(C(=O)Nc2ccccc2)C(c2ccccc2C)n2ncc(C(=O)Nc3ccccc3)c2N1` (stereo unspecified) here?
**A.** inconclusive [inhibitor, single point]

**Q.** With `Cc1ccc(-n2c(SCC(=O)O)nc3sc4c(c3c2=O)CC(C)(C)SC4)cc1` as the compound, how does the “activity change, negative = growth inhibition” value read?
**A.** inactive: -1.14%

**Q.** Which “activity change, negative = growth inhibition” value does the source give for `CCOC(=O)c1sc(N=NC2=C(O)CCCC2=O)c(C(=O)OCC)c1C` here?
**A.** inactive: -19.4%

**Q.** With `Cc1cc(Oc2cnn(C(C)(C)C)c(=O)c2Cl)cc(C(C)C)c1` as the compound, how does the Potency read?
**A.** inconclusive [inhibitor, single point]

**Q.** Which Potency does the source give for `Cc1cc(C)cc(OCCn2c(C3CC(=O)N(c4ccccc4Cl)C3)nc3ccccc32)c1` (stereo unspecified) here?
**A.** inconclusive [inhibitor, partial curve, poor fit]

**Q.** With `COc1ccc(-c2noc(C3CCCN(C(=O)c4cccs4)C3)n2)cc1` (stereo unspecified) as the compound, how does the Potency read?
**A.** inconclusive [inhibitor, partial curve]

**Q.** Which Potency does the source give for `NC(=O)CC(O)c1cccc(Cl)c1` (stereo unspecified) here?
**A.** inconclusive [inhibitor, single point]

**Q.** Which Potency does the source give for `O=C(CN1CCN(C(C(=O)Nc2ccc(Cl)cc2C(F)(F)F)c2ccccc2)CC1)NC1CC1` (stereo unspecified) here?
**A.** inconclusive [inhibitor, single point]

**Q.** Which Potency does the source give for `COc1ccc(CNC(=O)COc2ccc(S(=O)(=O)N3CCCCC3)cc2Cl)cc1` here?
**A.** inconclusive [inhibitor, partial curve, poor fit]

**Q.** For `Cc1nc2ccccc2n1CCc1nc2c3ccccc3nc(SCc3cccc(F)c3)n2n1`, which Potency is on record?
**A.** inconclusive [inhibitor, single point]

**Q.** With `Cc1ccc2c(=O)c(C(=O)c3ccccc3)cn(CC(=O)Nc3ccc4c(c3)OCCO4)c2n1` as the compound, how does the activity change, negative = growth inhibition read?
**A.** inconclusive: -34% [inhibitor]

**Q.** For `COc1cc(OC)nc(NC(=O)CS(=O)(=O)c2ccccc2)n1`, which “activity change, negative = growth inhibition” value is on record?
**A.** inactive: -10.6%

**Q.** For `CC1CCCC(NC(=O)NC(=O)COC(=O)c2ccc(O)cc2O)C1C` (stereo unspecified), which Potency is on record?
**A.** inconclusive [inhibitor, single point]

**Q.** With `COc1ccc(C(=O)N/C(=C\c2cccc3ccccc23)C(=O)N2CCN(C)CC2)cc1` as the compound, how does the activity change, negative = growth inhibition read?
**A.** inconclusive: -30.7% [inhibitor]

**Q.** With `CCOc1ccc(N(CC(=O)Nc2cccc(N(C)S(C)(=O)=O)c2)S(=O)(=O)c2ccccc2)cc1` as the compound, how does the Potency read?
**A.** active: 20.6 µM

**Q.** Which Potency does the source give for `COc1cc(/C=N/NC(=O)c2ccccn2)ccc1OC(=O)c1ccccc1Br` here?
**A.** inconclusive [inhibitor, partial curve, poor fit]

**Q.** Which Potency does the source give for `Cc1cccc2sc(N(CCCN(C)C)C(=O)c3cc4ccccc4oc3=O)nc12` here?
**A.** active: 23.1 µM

**Q.** Which “activity change, negative = growth inhibition” value does the source give for `CC1CCN(C(=O)CSCC(=O)O)CC1` here?
**A.** inactive: 1.25%

**Q.** For `O=C1NC[C@@H](CCCCN2C[C@H](Cc3ccc(O)cc3)N(CCC3CCCCC3)C(=O)C2=O)N(Cc2ccccc2)C1=O`, which “activity change, negative = growth inhibition” value is on record?
**A.** inactive: 3.5%

**Q.** Which Potency does the source give for `COc1ccccc1C(CNC(=O)CN1C(=O)NC(C)(c2ccc3ccccc3c2)C1=O)N1CCCC1` (stereo unspecified) here?
**A.** inconclusive [inhibitor, single point]

**Q.** For `Cc1nc(C(Cl)(Cl)Cl)nc2[nH]ccc(=O)c12`, which Potency is on record?
**A.** inconclusive [inhibitor, single point]

**Q.** For `CCNc1ncc2nc(-c3ccc(Cl)cc3)c(=O)n(Cc3ccc(F)cc3)c2n1`, which Potency is on record?
**A.** inconclusive [inhibitor, single point]

**Q.** Which Potency does the source give for `C[C@@H]1CN([C@@H](C)CO)C(=O)c2cc(C#Cc3cccc(F)c3)cnc2O[C@@H]1CN(C)CC1CCOCC1` here?
**A.** active: 16.4 µM

**Q.** For `Cc1cc(OCC(=O)Nc2ccc(S(=O)(=O)N3CCN(C)CC3)cc2)cc(C)c1Cl`, which activity change, negative = growth inhibition is on record?
**A.** inconclusive: -35.1% [inhibitor]

**Q.** With `COCCN(CC(=O)NCC1CCCO1)C(=O)CCC(=O)Nc1ccccn1` (stereo unspecified) as the compound, how does the Potency read?
**A.** active: 13 µM

**Q.** Which “activity change, negative = growth inhibition” value does the source give for `CC(C)Oc1cccc(C(=O)Nc2ccc(N3CCN(C)CC3)cc2)c1` here?
**A.** inactive: -9.85%

**Q.** Which “activity change, negative = growth inhibition” value does the source give for `Cn1c(=O)c2sccc2n2c(CCC(=O)NCc3ccc(F)cc3)nnc12` here?
**A.** inactive: 3.78%

**Q.** For `C=CCSc1nc2sc3c(c2c(=O)n1-c1ccc(C)cc1)CCN(C)C3`, which Potency is on record?
**A.** inconclusive [inhibitor, single point]

**Q.** Which “activity change, negative = growth inhibition” value does the source give for `COc1ccc(CCNC(=O)CCn2c(=O)c3ccccc3n(CC(=O)Nc3ccccc3F)c2=O)cc1OC` here?
**A.** inactive: -11.1%

**Q.** With `C=CCn1c(C)cc(C(=O)CSc2nnc(C3CC3)n2C2CC2)c1C` as the compound, how does the Potency read?
**A.** inconclusive [inhibitor, partial curve, poor fit]

**Q.** Which Potency does the source give for `CC(C)(C)c1ccc(C2Sc3ccccc3NC3=C2C(=O)c2ccccc23)cc1` (stereo unspecified) here?
**A.** active: 16.4 µM

**Q.** For `O=C(O)c1ccc(/C=N/NC(=O)c2cc(-c3cccs3)nc3ccccc23)cc1`, which Potency is on record?
**A.** inconclusive [inhibitor, single point]

**Q.** With `CC(CN1CCOCC1)OC(=O)c1ccccc1Br` (stereo unspecified) as the compound, how does the “activity change, negative = growth inhibition” value read?
**A.** inactive: -0.964%

**Q.** Which Potency does the source give for `Cc1ccc(OCCCC(=O)Nc2cc(S(=O)(=O)N3CCOCC3)ccc2N2CCOCC2)cc1` here?
**A.** active: 20.6 µM

**Q.** With `Cc1cc(=O)oc2cc(OCc3ccc(C(=O)OCC(=O)Nc4ccccc4OC(F)F)cc3)ccc12` as the compound, how does the Potency read?
**A.** inconclusive [inhibitor, single point]

**Q.** Which Potency does the source give for `CCOC(=O)c1sc2nc(N3CCOCC3)c3c(c2c1N)CCN(Cc1ccccc1)C3` here?
**A.** inconclusive [inhibitor, single point]

**Q.** For `CCOc1ccc(NC(=O)CC2C(=O)N(c3ccccc3)C(=O)N2CCc2ccc(OC)cc2)cc1` (stereo unspecified), which Potency is on record?
**A.** inconclusive [inhibitor, partial curve]

**Q.** Which “activity change, negative = growth inhibition” value does the source give for `COC(=O)c1cnn(-c2ccc(C(=O)Nc3cccc(C(C)=O)c3)cc2)c1N` here?
**A.** inactive: 2.04%

**Q.** Which Potency does the source give for `c1cncc(CNc2ncnc3sc4c(c23)CCCC4)c1` here?
**A.** inconclusive [inhibitor, single point]
